From the supplement of paper PMC4166925
± gives the standard deviation of the averaged measurements. Whole data set: some 33,000 sequences, median “E-score (dimensionless, -0.5 to 0.5)” near -0.046, cut for the highest 2% near 0.36. The list shows a part of the results.

The sequences below were run on T1, SpTbr T-box DNA-binding domain (GST fusion) (assay: PBM E-score of 8-mer (E-score (dimensionless, -0.5 to 0.5)); Tbr is Tbrain of the sea star Patiria miniata (Pm) or the sea urchin Strongylocentrotus purpuratus (Sp); higher = stronger binding preference; most listed sequences are background and not binding sites). Conditions: the construct has about 5 more residues each side.
T1 sequence: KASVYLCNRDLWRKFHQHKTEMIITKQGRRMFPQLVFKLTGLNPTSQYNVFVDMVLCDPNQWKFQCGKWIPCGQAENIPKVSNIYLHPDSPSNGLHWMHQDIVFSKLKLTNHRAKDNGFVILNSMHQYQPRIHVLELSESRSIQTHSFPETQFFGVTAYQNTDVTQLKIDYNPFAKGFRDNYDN
Procedure, shortened: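 Expression of GST-fused Tbr T-box DNA-binding domains, each holding the full T-box plus roughly five flanking residues, was carried out in BL21 E. coli at 20 °C, with purification by glutathione affinity chromatography. Universal Agilent arrays made double-stranded by primer extension were incubated with the protein at 200 nM in PBS (pH 7.5), then scanned and quantified. All ungapped 8-mers were scored from probe intensities, and each received an enrichment E-score from the Universal PBM Analysis Suite, averaged over duplicate arrays.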

Sequence	PBM E-score of 8-mer
CAATGGGA	-0.116 ± 0.015
ATGGTATC	-0.106 ± 0.066
GTTATTGA	0.08 ± 0.058
CGCCTAGA	-0.0316 ± 0.023
CATAGGCA	-0.259 ± 0.054
GGGAAGTA	-0.201 ± 0.049
TCCCCGAA	-0.131 ± 0.022
GGTCCTAA	-0.195 ± 0.038
CCGCTGTA	-0.106 ± 0.0058
CGCCCACG	0.0689 ± 0.064
CAATCGCA	0.175 ± 0.0096
ACGACTCA	-0.0191 ± 0.018
GTCACTTA	0.288 ± 0.019
ATGGGCCG	-0.31 ± 0.017
TTAATTAA	-0.0659 ± 0.12
GACGCATC	0.133 ± 0.052
AAGATTAT	-0.153 ± 0.029
CCGGGTCC	0.0397 ± 0.02
TAATACAA	-0.139 ± 0.019
GATTATTA	-0.163 ± 0.026
AATTTAGA	0.0191 ± 0.045
GTTGCAGA	-0.0699 ± 0.046
TTCTACAA	-0.257 ± 0.005
TCCCTTAA	-0.153 ± 0.04
TAGGTATA	0.106 ± 0.024

Sequence	PBM E-score of 8-mer
AAATATGC	-0.134 ± 0.046
GAATGGAC	-0.0456 ± 0.02
CCGTATTA	-0.268 ± 0.036
AAATCCCA	-0.00587 ± 0.045
CCAACCGC	-0.0294 ± 0.1
GGTGGCTA	-0.134 ± 0.12
TCCGCCCA	0.112 ± 0.038
CTTAAATC	-0.214 ± 0.036
TCAAGTAA	-0.033 ± 0.016
GCGTTCAA	-0.166 ± 0.13
ATAAGCCG	-0.168 ± 0.056
CTCGTTCA	0.0405 ± 0.033
CCAGTTAC	-0.149 ± 0.009
ATCCCAGG	-0.18 ± 0.078
CCTAAAAA	-0.0876 ± 0.039
TGGCAAAA	0.0945 ± 0.032
ACAATTAT	-0.0335 ± 0.045
ATTTGTGG	0.075 ± 0.012
ACCAGACT	-0.1941 ± 0.0019
ACGAAGTG	0.229 ± 0.016
ACAGCCTA	0.0885 ± 0.08
ATCAACTG	-0.0351 ± 0.043
AAGAGGTC	-0.128 ± 0.01
GCCGTTAA	0.105 ± 0.032
ACATAGCG	-0.0402 ± 0.04

Sequence	PBM E-score of 8-mer
CTTTGCAC	0.212 ± 0.03
CAGGAGAC	-0.112 ± 0.056
GCATCCTA	-0.126 ± 0.048
GAAGAGCC	-0.127 ± 0.028
AGTCCGTA	-0.286 ± 0.028
CCCCTATC	-0.132 ± 0.09
ACCGCACG	-0.00319 ± 0.0013
ACTCGCAC	0.394 ± 0.035
ATATAGTG	0.074 ± 0.0098
CCCGTCGG	0.0199 ± 0.048
GTTCACTA	-0.0482 ± 0.02
CAATTGCG	0.12 ± 0.013
AATGTTCC	-0.162 ± 0.021
AGGTCATC	0.0583 ± 0.033
GCCCCAAC	0.133 ± 0.059
AAAGGTTC	-0.076 ± 0.017
TCAGTGCA	-0.101 ± 0.038
AAGGGAAG	-0.247 ± 0.0075
CTTGGTCC	-0.164 ± 0.035
CACAACAG	0.198 ± 0.0064
AGAATACG	-0.14 ± 0.0038
GAACACAC	0.209 ± 0.017
CAGCAGGA	-0.254 ± 0.023
AACCGGGA	-0.0882 ± 0.057
CAATGGTC	-0.185 ± 0.041

Sequence	PBM E-score of 8-mer
CAAATCCG	-0.119 ± 0.048
AAGGTGTA	0.394 ± 0.023
CACTGCCA	0.17 ± 0.038
AAAGCATT	-0.0192 ± 0.029
CCATGCAA	-0.101 ± 0.0018
GCGACTAC	0.055 ± 0.036
ACAACTCC	0.182 ± 0.015
ACTGGCTG	-0.0323 ± 0.042
GGGGGACC	-0.185 ± 0.096
CGATCTAA	-0.0809 ± 0.0036
AACCCAGT	-0.292 ± 0.062
AGAAGTTC	-0.0174 ± 0.053
CTATACGC	-0.261 ± 0.0047
CTGCTTCC	-0.139 ± 0.054
ATAATGGC	0.0226 ± 0.052
GTCGAAAA	-0.0421 ± 0.02
AATGCTCC	0.0107 ± 0.031
AGCCTGGG	-0.271 ± 0.052
CAACCTAG	-0.0248 ± 0.069
CAGTCCCA	-0.00619 ± 0.015
ATCCGGGG	0.0212 ± 0.048
AATTAACA	0.244 ± 0.035
TGGCGACA	0.326 ± 0.004
TAAAACTA	-0.00768 ± 0.057
AGCTGTGA	0.393 ± 0.0083

Sequence	PBM E-score of 8-mer
CTTTAGTA	-0.0569 ± 0.065
AGAATGAT	0.0861 ± 0.0031
AAGTACTC	-0.0747 ± 0.031
CAATAGTA	-0.203 ± 0.068
AAATCCAG	-0.026 ± 0.028
GTTCGTAA	-0.154 ± 0.093
GTTGTCCA	0.0924 ± 0.018
GACCAGGC	0.0346 ± 0.039
ACGCTTAT	0.0247 ± 0.035
AGATTAGC	0.0489 ± 0.043
GTGCAGAA	0.0173 ± 0.025
AGAGACAG	-0.19 ± 0.0077
ATAGGGTA	0.103 ± 0.052
GAGTCCTA	-0.117 ± 0.0018
AAGGTCAA	-0.186 ± 0.022
AACTCCAC	0.145 ± 0.025
GCAGAGCA	-0.245 ± 0.044
CTTGCGAC	0.27 ± 0.012
ATTTGGAA	-0.169 ± 0.095
TAATTCCA	-0.186 ± 0.081
CTAGGATC	-0.255 ± 0.035
GCTTAACA	0.169 ± 0.073
CGGCCCCA	-0.0162 ± 0.12
ATCGAGCC	-0.119 ± 0.01
TCGGTGCA	-0.0526 ± 0.055

Sequence	PBM E-score of 8-mer
CTCACATA	0.157 ± 0.034
TAGTGGAA	0.058 ± 0.077
TGAAGGCA	-0.14 ± 0.031
CATGCATA	-0.219 ± 0.025
CGGCGATC	-0.0987 ± 0.068
CCGGCAGA	-0.199 ± 0.035
GCGCCGGA	0.00717 ± 0.07
CACGAGAA	0.209 ± 0.031
GACCTAGC	-0.00539 ± 0.06
GCGGTTAA	-0.00135 ± 0.0032
CTCGTGAA	0.307 ± 0.02
CCATCGGA	-0.285 ± 0.055
GCTTTTAC	-0.0958 ± 0.063
GTGAACGA	0.254 ± 0.029
AGAGGCCG	-0.067 ± 0.071
ATATAAAA	-0.0476 ± 0.066
CCGGCACA	-0.0242 ± 0.055
ACGGTTTA	0.0625 ± 0.042
ACTTATCT	0.019 ± 0.058
ATTGATGC	0.0185 ± 0.0036
GCATAACA	0.191 ± 0.034
CGATCGAG	-0.0942 ± 0.06
CTGAATCA	-0.144 ± 0.036
GCATGGAC	-0.256 ± 0.056
CAGACCGG	-0.142 ± 0.043

Sequence	PBM E-score of 8-mer
CGAGACAC	0.121 ± 0.082
GTTGTTTA	0.0875 ± 0.017
AGGCCAAC	-0.0875 ± 0.028
ACTCTAGA	0.0954 ± 0.0087
ATCTTGGA	-0.0268 ± 0.014
GCGGCCGC	0.0117 ± 0.081
ACGAAGTC	0.00736 ± 0.1
ACACTCAT	0.307 ± 0.012
CCCTAATC	-0.0644 ± 0.02
CATGCCCA	-0.0982 ± 0.076
ACGAAAGG	-0.0612 ± 0.01
ATAAACGA	-0.135 ± 0.057
CAACGACG	0.0694 ± 0.038
AGCGTGTG	0.21 ± 0.06
AACCGTTG	0.148 ± 0.026
CGTGGACA	0.0466 ± 0.017
ACGGTCGA	-0.0241 ± 0.073
CGCATGCG	-0.047 ± 0.027
ACAGGGCC	-0.14 ± 0.03
CTACAGCC	-0.252 ± 0.016
CTAGGAAC	-0.0215 ± 0.064
AAAACTGC	0.0893 ± 0.035
